This is one part of the list.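 How the source made its calls: active = average curve height above 101 Omnilog units; inactive = average height at or below 101.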 Most values come without repeats; read them as rough.
Experiments:
[1] = test system: Acinetobacter baumannii AB6870155; assay: respiration area under curve on compound as sole carbon source (Biolog PM, 48 h) (arbitrary Omnilog units x h (AUC)); higher = more carbon source utilisation / respiration; details: Biolog inoculating fluid, temperature: 37 °C
[2] = test system: Klebsiella pneumoniae KP6870155; assay: as above; details: Biolog inoculating fluid, temperature: 37 °C

Row | Compound | respiration area under curve [1] | respiration area under curve [2]
1 | OC[C@H]1O[C@H](OC[C@H]2O[C@H](O[C@]3(CO)O[C@H](CO)[C@@H](O)[C@@H]3O)[C@H](O)[C@@H](O)[C@@H]2O)[C@H](O)[C@@H](O)[C@H]1O [D-Raffinose] | inactive: 1980 | active: 11900
2 | NCCCCC(=O)O [Delta-Amino Valeric Acid] | inactive: 1650 | inactive: 4620
3 | OC[C@@H](O)[C@@H](O[C@H]1O[C@H](CO)[C@@H](O)[C@H](O)[C@H]1O)[C@H](O)[C@@H](O)CO [Maltitol] | inactive: 1380 | active: 10700
4 | CCCCCCCCCC(=O)O [Capric Acid] | inactive: 1810 | inactive: 3170
5 | O=C(CO)[C@@H](O[C@H]1O[C@H](CO)[C@@H](O)[C@H](O)[C@H]1O)[C@H](O)[C@H](O)CO [Turanose] | inactive: 2030 | active: 10300
6 | N[C@@H](Cc1ccccc1)C(=O)O [L-Phenylalanine] | active: 11400 | inactive: 7580
7 | CCC(C)N (stereo unspecified) [Sec-Butylamine] | inactive: 1500 | inactive: 4320
8 | COC1OC(CO)C(O)C(O)C1O [Alpha-Methyl-D-Mannoside] | inactive: 1570 | inactive: 4160
9 | Cc1cn([C@H]2C[C@H](O)[C@@H](CO)O2)c(=O)[nH]c1=O [Thymidine] | inactive: 2330 | active: 11700
10 | O=C(O)C(=O)O [Oxalic Acid] | inactive: 1760 | inactive: 4040
11 | NCCC[C@H](N)C(=O)O [L-Ornithine] | active: 11100 | inactive: 5670
12 | CC(N)=O [Acetamide] | inactive: 1790 | inactive: 3960
13 | O[C@@H]1[C@@H](O)[C@@H](O)CO[C@H]1O [L-Arabinose] | active: 12100 | active: 11600
14 | O=C(O)[C@@H](O)[C@@H](O)[C@H](O)[C@@H](O)C(=O)O [D-Saccharic Acid] | active: 12300 | active: 12600
15 | O=C(O)CCC(=O)O [Succinic Acid] | active: 11400 | active: 10600
16 | O=C(CO)[C@@H](O)[C@H](O)[C@H](O)CO [D-Fructose] | inactive: 1580 | active: 11800
17 | O[C@@H]1[C@H](O)[C@H](O)CO[C@H]1O [D-Ribose] | active: 11700 | active: 12400

Row | Compound | respiration area under curve [1] | respiration area under curve [2]
18 | CO[C@@H]1O[C@H](C(=O)O)[C@@H](O)[C@H](O)[C@H]1O [Beta-Methyl-D-Glucuronic Acid] | inactive: 1640 | inactive: 3670
19 | C[C@H](O)C(=O)O [L-Lactic Acid] | active: 11400 | active: 11000
20 | O=C(O)c1ccc(O)cc1 [4-Hydroxy Benzoic Acid] | active: 10100 | active: 9350
21 | CCC(O)C(=O)O (stereo not drawn) [Alpha-Hydroxy Butyric Acid] | active: 9030 | inactive: 4680
22 | Nc1ncnc2c1ncn2[C@@H]1O[C@H](CO)[C@@H](O)[C@H]1O [Adenosine] | inactive: 2360 | active: 12100
23 | C[C@H](O)[C@@H](O)[C@@H](O)[C@H](O)C=O [L-Fucose] | inactive: 1530 | active: 10900
24 | C[C@@H](O)[C@H](N)C(=O)O [L-Threonine] | inactive: 4790 | active: 9030
25 | COC(=O)CCC(=O)O [Mono Methyl Succinate] | inactive: 4720 | inactive: 6010
26 | CC(O)C(C)O (stereo unspecified) [2,3-Butanediol] | inactive: 7490 | inactive: 4150
27 | O=C1O[C@H]([C@@H](O)CO)[C@@H](O)[C@@H]1O [L-Galactonic Acid-Gamma-Lactone] | inactive: 2570 | active: 8340
28 | O=C(CO)CO [Dihydroxy Acetone] | inactive: 3350 | active: 12100
29 | CC(=O)N[C@@H](CCC(=O)O)C(=O)O [N-Acetyl-L-Glutamic Acid] | inactive: 1430 | inactive: 3240
30 | CCC(=O)O [Propionic Acid] | active: 10500 | inactive: 3200
31 | O=C(O)CO [Glycolic Acid] | inactive: 1860 | inactive: 3650
32 | O=C(O)C[C@@H](O)C(=O)O [D-Malic Acid] | inactive: 7720 | inactive: 7180
33 | OC[C@H]1O[C@@H](O[C@@H]2[C@@H](CO)OC(O)(CO)[C@H]2O)[C@H](O)[C@@H](O)[C@H]1O (mixture of isomers) [Lactulose] | inactive: 1600 | active: 10200
